# Among all 310,000 compounds or so, about 14,000 (4.5%) showed an effect of 50% or more. The effect is printed as a negative number. The list shows a part of the results.
# Target: human ether-à-go-go-related gene (hERG) potassium channel (human, UniProt Q12809)
# Assay: primary screen, population patch clamp on CHO cells stably expressing hERG
# 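Note: peak tail current of the secondary pulse compared with the same well before compound.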
# Chain of human ether-à-go-go-related gene (hERG) potassium channel (Q12809 whole entry, looked up): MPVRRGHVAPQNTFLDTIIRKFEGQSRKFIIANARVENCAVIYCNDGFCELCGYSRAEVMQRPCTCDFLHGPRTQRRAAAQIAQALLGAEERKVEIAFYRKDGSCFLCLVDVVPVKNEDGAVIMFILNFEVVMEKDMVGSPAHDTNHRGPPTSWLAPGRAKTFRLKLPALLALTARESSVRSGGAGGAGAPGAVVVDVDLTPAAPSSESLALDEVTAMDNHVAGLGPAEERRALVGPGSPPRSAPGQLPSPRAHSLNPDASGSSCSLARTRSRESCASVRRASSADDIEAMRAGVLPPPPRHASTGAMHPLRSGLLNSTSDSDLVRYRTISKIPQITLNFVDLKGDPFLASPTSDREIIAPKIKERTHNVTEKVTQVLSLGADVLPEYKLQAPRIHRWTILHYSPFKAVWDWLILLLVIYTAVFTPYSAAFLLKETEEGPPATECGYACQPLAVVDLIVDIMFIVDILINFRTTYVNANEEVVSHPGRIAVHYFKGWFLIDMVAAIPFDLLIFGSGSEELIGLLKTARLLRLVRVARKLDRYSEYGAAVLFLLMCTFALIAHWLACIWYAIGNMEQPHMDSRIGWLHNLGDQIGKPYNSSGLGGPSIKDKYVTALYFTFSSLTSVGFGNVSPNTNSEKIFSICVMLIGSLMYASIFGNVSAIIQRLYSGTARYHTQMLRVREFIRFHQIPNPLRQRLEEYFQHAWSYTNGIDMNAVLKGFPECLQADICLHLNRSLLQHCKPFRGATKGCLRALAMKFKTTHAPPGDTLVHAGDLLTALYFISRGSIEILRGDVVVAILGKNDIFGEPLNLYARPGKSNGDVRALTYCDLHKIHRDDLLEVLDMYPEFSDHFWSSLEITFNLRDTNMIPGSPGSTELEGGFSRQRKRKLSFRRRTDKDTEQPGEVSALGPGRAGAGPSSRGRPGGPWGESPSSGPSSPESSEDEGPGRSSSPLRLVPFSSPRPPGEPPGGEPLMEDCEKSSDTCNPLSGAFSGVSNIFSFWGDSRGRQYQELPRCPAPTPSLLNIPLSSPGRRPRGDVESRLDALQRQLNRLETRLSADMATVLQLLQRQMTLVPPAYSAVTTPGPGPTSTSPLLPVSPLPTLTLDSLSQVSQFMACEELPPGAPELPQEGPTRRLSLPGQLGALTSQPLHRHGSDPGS
row,Compound,"hERG current change (%, negative = inhibition) at 10uM"
1,COc1ccc(NC(=O)N2CCCC2C(=O)NCC2CCCCC2)cc1 (stereo not drawn),0.904%
2,Cc1nc2scc(C)n2c(=O)c1S(=O)(=O)NCCc1ccc(Cl)cc1,7.69%
3,COC(=O)c1ccc(N2CCCCC2)c(N)c1,-4.44%
4,CCCCCCCCCCCC(=O)NC(Cc1ccc(OC)c([N+](=O)[O-])c1)C(=O)[O-].[NH4+] (stereo not drawn),-28.9%
5,O=C(OCc1ccc([N+](=O)[O-])cc1)c1ccc2ccccc2n1,-19%
6,CC1CCCN(C(=O)CSc2nnc(-c3ccncc3)n2C)C1 (stereo not drawn),45.9%
7,CCC1=NC(c2ccccc2Cl)N(O)C1(C)C (stereo not drawn),21.6%
8,O=C(CSc1ccccc1)NC1=NCCS1,3.33%
9,CC(=O)Nc1cccc(C(=O)N/N=C/c2ccc(F)cc2)c1,10.6%
10,Cc1cccc(OC(C)C(=O)Nc2nccs2)c1 (stereo not drawn),8.8%
11,COc1ccc(C2CC(=O)Nc3ccccc3S2(=O)=O)cc1OC (stereo not drawn),5.26%
12,O=C(NC1CN2CCC1CC2)c1ccc(-c2ccc([N+](=O)[O-])cc2)o1 (stereo not drawn),-64%
13,CCCNC(=O)NC(=O)CN1C(=O)NC(C)(c2ccc3ccccc3c2)C1=O (stereo not drawn),4.51%
14,Cc1cccc(NC(=O)CSc2nc(C)c(CC(=O)c3ccc(Br)cc3)c(C)c2C#N)c1C,18.4%
15,C=CCNc1nc2c(c(=O)n(C)c(=O)n2C)n1CC,7.31%
16,Cc1ccc(CNC(=O)CN2C(=O)COc3ccc(S(=O)(=O)N4CCCCC4)cc32)o1,16%
17,CCC1(COC(=O)Nc2cccc(Cl)c2)COC1,-13.3%
18,O=C(NC(=S)Nc1cc(C(F)(F)F)ccc1N1CCOCC1)c1ccc(-c2cccc(Cl)c2)o1,-2.47%
19,CC(C)Nc1nc(NC(C)C)nc(NS(=O)(=O)c2ccc(N)cc2)n1,-2.77%

row,Compound,"hERG current change (%, negative = inhibition) at 10uM"
1,Cc1cccc(C)c1NC(=O)C(c1ccccc1)N1CCC1=O (stereo not drawn),9.89%
2,C=C1N2CCC(CC2)C1(O)c1ccccc1C.Cl (stereo not drawn),3.97%
3,CCOc1ccccc1OCCn1nnc2ccccc21,-2.6%
4,Cc1nc2nc[nH]n2c(=O)c1NC(=O)CCc1ccccc1,1.26%
5,COc1cc(C(=O)Oc2ccccc2/C=N/NC(=O)c2ccc(C)c(Cl)c2)cc(OC)c1OC,-3.66%
6,CC[C@@H](C(N)=O)N1CCCC1=O,-3.78%
7,O=[N+]([O-])c1ccc(C2=NCCO2)cc1,7.29%
8,Cc1cc(C)c(S(=O)(=O)c2cccc(C(F)(F)F)c2)c(=O)[nH]1,11.9%
9,CCOC(=O)CC(NC(=O)c1ccccc1)c1ccc(OC)cc1 (stereo not drawn),5.04%
10,NS(=O)(=O)c1ccc(NC(=O)CN2C(=O)CCC2=O)cc1,27.7%
11,COC(=O)CCC(=O)NC(=S)Nc1sc(C)c(C)c1C(N)=O,11.1%
12,CCN(CC)C(=O)Cn1cnc2c1c(=O)n(C)c(=O)n2C,-8.14%
13,COc1ccccc1C(=O)NCC(=O)OCC(=O)c1ccc2c(c1)-c1ccccc1C2,-0.208%
14,O=S(=O)(NCc1ccc2c(c1)OCO2)c1cnc[nH]1,12.9%
15,COc1ccc(NC(=O)CSc2nc(N3CCCCC3)nc(N3CCCCC3)n2)cc1,5.01%
16,CCCn1c(SCC(=O)NCc2ccccc2)nnc1-c1ccncc1,5.29%
17,CC(C)n1cc(/C=C2/NC(=O)NC2=O)c2ccccc21,-2.61%
18,COC(=O)c1ccccc1NC(=O)C1CCCN(S(=O)(=O)c2ccc(OC)cc2)C1 (stereo not drawn),-7.91%
19,O=C(Nc1cccc(S(=O)(=O)N2CCCCC2)c1)C1CC(=O)N(c2ccc3c(c2)OCCO3)C1 (stereo not drawn),16.9%

row,Compound,"hERG current change (%, negative = inhibition) at 10uM"
1,CC(=O)Nc1cccc(NC(=O)CSc2nnc3ccc(-c4ccncc4)nn23)c1,-17.8%
2,Cl.O=C1CCN=C(Nc2ccc(F)cc2)N1Cc1ccccc1,-12.9%
3,FC(F)(F)c1nc(Oc2ccccc2)c2ccccc2n1,11.3%
4,COc1cccc(S(=O)(=O)NCc2ccc3c(c2)OCO3)c1,-16.5%
5,Cl.O=C(/C=C/c1cccc(OCc2ccccc2)c1)c1cccnc1,13.5%
6,COc1ccc(S(=O)(=O)N2CCOCC2)cc1NC(=O)c1ccc(Cl)cc1,2.56%
7,CCN(CCO)c1cc(Cl)nc(SC)n1,-3.89%
8,CCc1ccc(N2CC(C(=O)Nc3ccc4c(c3)OCCO4)CC2=O)cc1 (stereo not drawn),-41.3%
9,CCOC(=O)N1CCN(S(=O)(=O)c2ccc([N+](=O)[O-])cc2)CC1,-23.9%
10,Cc1nn(CC(=O)Nc2ccccc2C(F)(F)F)c(=O)c2cccn12,6.34%
11,COc1ccc(OC)c(S(=O)(=O)N(C)CC(=O)N2CCN(c3ccc(F)cc3)CC2)c1,-44.3%
12,Cc1cc2nc(SC(C)C(=O)O)[nH]c2cc1C (stereo not drawn),25.9%
13,COc1cccc(CCNC(=O)CC2C(=O)NCCN2Cc2ccc(Cl)c(F)c2)c1 (stereo not drawn),-15.1%
14,COc1ccc(-c2sc(Nc3ccccc3)n[n+]2-c2ccc(F)cc2)c(C)c1C.[Cl-],-74.5%
15,CCCSC(=O)N(CC)CC(=O)Nc1c(CC)cccc1CC,-16.6%
16,CCC(=O)NC(=S)Nc1cccc(NC(=O)c2ccc(Cl)cc2Cl)c1,14%
17,Cl.N=c1sccn1CC(=O)Nc1ccc(Cl)c(S(=O)(=O)N2CCOCC2)c1,-50.4%
18,O=C(O)CN(c1ccccc1)S(=O)(=O)c1cc(C(F)(F)F)cc(C(F)(F)F)c1,11%
19,O=C(COc1coc(CN2CCCc3ccccc32)cc1=O)Nc1ccc([N+](=O)[O-])cc1,0.271%

# From publication PMC4336329 (PLoS ONE, 2015)
